Test results from publication PMC4336329 (PLoS ONE, 2015).
The whole screen tested about 310,000 compounds, of which about 2,200 (0.71%) showed an effect of 50% or more. The effect is printed as a negative number. The list shows a part of the results.

Target: human ether-à-go-go-related gene (hERG) potassium channel (human, UniProt Q12809)
Experiment: primary screen, population patch clamp on CHO cells stably expressing hERG

human ether-à-go-go-related gene (hERG) potassium channel, sequence (Q12809 whole entry, looked up): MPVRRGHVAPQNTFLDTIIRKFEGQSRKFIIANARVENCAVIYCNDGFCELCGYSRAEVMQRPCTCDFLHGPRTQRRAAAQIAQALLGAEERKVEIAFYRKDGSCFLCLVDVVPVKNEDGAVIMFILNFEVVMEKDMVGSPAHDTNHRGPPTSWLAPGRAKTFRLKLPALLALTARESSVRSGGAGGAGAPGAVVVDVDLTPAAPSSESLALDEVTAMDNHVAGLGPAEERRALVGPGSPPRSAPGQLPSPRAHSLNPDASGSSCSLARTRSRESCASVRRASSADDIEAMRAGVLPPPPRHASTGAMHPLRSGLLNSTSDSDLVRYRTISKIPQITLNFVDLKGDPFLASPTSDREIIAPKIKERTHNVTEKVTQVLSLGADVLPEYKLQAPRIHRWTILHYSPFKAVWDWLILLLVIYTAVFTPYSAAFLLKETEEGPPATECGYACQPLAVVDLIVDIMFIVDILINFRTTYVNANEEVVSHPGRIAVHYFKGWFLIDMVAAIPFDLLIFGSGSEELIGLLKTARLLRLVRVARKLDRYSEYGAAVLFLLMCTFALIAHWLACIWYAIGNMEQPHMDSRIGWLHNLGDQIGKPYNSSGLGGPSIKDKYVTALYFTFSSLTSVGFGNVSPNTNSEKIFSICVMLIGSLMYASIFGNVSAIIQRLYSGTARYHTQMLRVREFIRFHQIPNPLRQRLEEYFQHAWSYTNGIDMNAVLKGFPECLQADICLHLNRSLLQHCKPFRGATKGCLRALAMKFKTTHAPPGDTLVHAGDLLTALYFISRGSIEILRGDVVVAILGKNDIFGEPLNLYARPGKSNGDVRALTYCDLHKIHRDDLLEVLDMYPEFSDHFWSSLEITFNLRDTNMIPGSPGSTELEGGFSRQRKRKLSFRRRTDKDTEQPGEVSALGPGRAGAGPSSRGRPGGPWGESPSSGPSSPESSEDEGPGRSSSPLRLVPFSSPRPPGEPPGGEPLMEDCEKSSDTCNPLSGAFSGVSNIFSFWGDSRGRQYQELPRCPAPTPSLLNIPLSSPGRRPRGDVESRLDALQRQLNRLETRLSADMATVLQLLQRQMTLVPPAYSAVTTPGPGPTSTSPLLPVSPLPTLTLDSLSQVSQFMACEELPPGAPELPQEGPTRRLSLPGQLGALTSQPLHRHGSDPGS

Row | Structure (SMILES) | hERG current change (%, negative = inhibition) at 1uM [%]
1 | FC(F)(F)c1nnc2c(Sc3ccccc3)nc3ccc(Cl)cc3n12 | 10
2 | Cc1cc(=O)oc2cc(NC(=S)NNC(=O)c3c(Cl)cnn3C)ccc12 | 8.01
3 | COC(=O)c1ccc2c(c1)C(=O)/C(=C/c1ccc(O)cc1)O2 | 16.3
4 | Cc1cc(C)n(-c2ccc(Cl)c(C(=O)Nc3ccc(OC(F)(F)F)cc3)n2)n1 | 1.74
5 | C/C(=N\Nc1cccc2cccnc12)c1ccccn1 | 10.3
6 | O=C(CNS(=O)(=O)/C=C/c1ccccc1)OC1CCOC1=O (centres unmarked) | 10.2
7 | Cc1ccc(-c2nnn(CCC(=O)NC3CCCC3)n2)cc1 | 4.87
8 | Cc1cccc(S(=O)(=O)NCCc2cn3ccccc3n2)c1 | 7.71
9 | CCCCCc1ccc(S(=O)(=O)NCCc2ccncc2)cc1 | -10.1
10 | CCOC(=O)C1CCN(CCC(=O)Nc2ccc(F)cc2)CC1 | 6.25
11 | CCN(CC)CCNC(=O)c1[nH]c2ccc(OCc3ccccc3)cc2c1C | -61.3
12 | CCN(CC)c1ccc(N)cc1S(=O)(=O)Nc1ccccc1OC | -4.18
13 | CC(=O)N1CC(C)Sc2ccc(S(=O)(=O)NCc3ccc(Cl)cc3)cc21 (centres unmarked) | 1.91
14 | O=C1Nc2ccccc2C1C(C[N+](=O)[O-])c1ccccc1 (centres unmarked) | -1.46
15 | CCc1c(C)c2ccc(OC3CCCCC3=O)cc2oc1=O (centres unmarked) | 10.8
16 | O=C(COc1ccc2cc(-c3ccccc3)c(=O)oc2c1)NCC1CCC(C(=O)O)CC1 (centres unmarked) | 9.54
17 | N#CCCNC(=O)CCN1CCCCC1 | -0.18
18 | Cc1sc(NC(=O)C2CC(Cl)=CCC2C(=O)O)c(C#N)c1C (centres unmarked) | 11.3
19 | Cc1cccc(N2CCN(C(=O)CN3C(=O)NC(C)(C)C3=O)CC2)c1C | 11.3
20 | O=C(Nc1ccc(Cl)cc1)OCc1cc(-c2ccccc2Cl)on1 | 11.7
21 | C=CCNC(=O)c1onc(CSc2ccc(Cl)cc2)c1C(=O)O | 13.6
22 | C=CCc1cccc(CNn2cnnc2)c1O | 15.2
23 | COC(=O)C1(C)Cc2cc(OC(C)=O)c(OC(C)=O)cc2N1 (centres unmarked) | 11.7

Row | Structure (SMILES) | hERG current change (%, negative = inhibition) at 1uM [%]
24 | CSc1nnc2n(-c3ccc(C)cc3)c(=O)c3c4c(sc3n12)COC(C(C)C)C4 (centres unmarked) | 13.3
25 | O=C(COC(=O)c1cc(Cl)cc(Cl)c1)NCCN1C(=O)CSC1=O | 9.27
26 | Cc1ccc(-n2cnnn2)cc1Cl | -16.6
27 | COc1ccccc1CNC(=O)COC(=O)C12CC3CC(CC(O)(C3)C1)C2 | 3.32
28 | CS(=O)(=O)N1CCC(C(=O)Nc2ccc(Oc3ccccc3)cc2)CC1 | -8.7
29 | CCN1CCN(C(=O)C2CCN(Cc3nc(-c4cccc(Cl)c4)oc3C)CC2)CC1 | -21
30 | O=C(O)c1ccc2c(c1)C(c1ccccc1)OC2=O (centres unmarked) | 4.36
31 | O=C(NCc1ccccn1)c1cc(S(=O)(=O)N2CCCCCC2)ccc1Cl | 16.6
32 | C[C@H](NC(=O)[C@@H]1CSC2c3ccccc3C(=O)N21)C(=O)NCCc1ccccc1 (some centres unmarked) | 9.4
33 | CC(=O)c1cccc(NC(=S)NCc2ccco2)c1 | 8.86
34 | CN(C)C(=N)c1n[nH]nc1SCc1ccc(Cl)c(Cl)c1.Cl | 6.32
35 | c1ccc(OCCSc2nnnn2-c2ccccc2)cc1 | -13.4
36 | O=C(CSc1ncn[nH]1)N1N=C(c2ccc(Cl)cc2)CC1c1ccco1 (centres unmarked) | -2.39
37 | Cc1ccc2c(CSc3nnc(N)s3)cc(=O)oc2c1 | 0.379
38 | Cn1nnnc1SCC(=O)C(C)(C)C | 6.65
39 | C#CCNC(=O)C1=C[C@@H](C2CC2)C[C@@H](OCc2ccc(CO)cc2)O1 | 16
40 | CCC(C)[C@H](NC(=O)NC1CCN(Cc2ccccc2)CC1)C(=O)OC (some centres unmarked) | -1.71
41 | COc1ccc2nc3oc(C(=O)NCc4cccs4)cc3cc2c1 | -5.34
42 | Cc1ccc(NC(=O)COc2ccc(CCO)cc2-n2nc3ccccc3n2)cc1C | 14.7
43 | O=S(Cc1ccc(Cl)cc1)CC(O)COCc1ccc(Cl)cc1 (centres unmarked) | 0.524
44 | COc1cc(C)c(CN2CCCCC2CO)cc1C (centres unmarked) | 4.82
45 | CN(CC(=O)NCc1cccnc1)S(=O)(=O)c1cc(Cl)ccc1Cl | -0.369
46 | Cc1ccc(CNC(=O)c2cc3c(-c4ccc(Cl)cc4)nn(C)c3s2)o1 | 6.73

Row | Structure (SMILES) | hERG current change (%, negative = inhibition) at 1uM [%]
47 | CCn1c(SCC(=O)Nc2ccccc2C(=O)OC)nnc1-c1ccoc1C | 2.55
48 | CCn1c(O)c(C=NC2CCCC(C)C2C)sc1=S (centres unmarked) | 23
49 | CN(/N=C/c1ccncc1)C1=NS(=O)(=O)c2ccccc21 | 3.37
50 | CN1CCN(C(=O)/C=C/c2cn(-c3ccccc3)nc2-c2ccc3c(c2)OCCO3)CC1.Cl | 7.65
51 | CCn1cc(S(=O)(=O)Nc2ccc(C)c(Cl)c2)cn1 | 5.45
52 | Cc1ccc(C(=O)O/N=C(\N)Cc2cccc3ccccc23)cc1 | 13.9
53 | COc1cc2c(C(=O)N3CCN(c4cccc(Cl)c4)CC3)cn(C)c(=O)c2cc1OC | -21.3
54 | Cc1nn(Cc2ccccc2)c(Cl)c1/C=C/C(=O)OCC(=O)N1CCCC1=O | -2.01
55 | O=C(Cn1cc(C(F)(F)F)cc(Cl)c1=O)NCc1ccc(Cl)cc1Cl | 7.81
56 | CCN(Cc1cnn(C)c1)C(=O)C1CCC(=O)N(CCc2ccc(OC)cc2)C1 (centres unmarked) | 10.7
57 | O=C(O)c1ccccc1-n1c2ccccc2c2ccccc21 | 11
58 | O=C(NC(NC(=S)Nc1ccc(Cl)c(Cl)c1)C(Cl)(Cl)Cl)c1ccco1 (centres unmarked) | 14.2
59 | COc1cc(C)c(S(=O)(=O)N2CCCC2)cc1C | 11.2
60 | CC(C(=O)NCc1ccco1)c1ccc([N+](=O)[O-])cc1 (centres unmarked) | 5.93
61 | Cc1ccccc1OCCC(=O)N1CCN(S(=O)(=O)c2ccc(Cl)cc2)CC1 | 5.86
62 | O=S(=O)(c1ccccc1)N1CCN=C1SCc1ccccc1Cl | 15.7
63 | COc1cc(C2C(C(C)=O)=C(C)Nc3ncnn32)ccc1O (centres unmarked) | 10.7
64 | CCCCn1nc(NC(=O)COC)c2cc3ccc(C)cc3nc21 | 15.1
65 | CCn1cc(CCCC(=O)NCc2cccnc2)c2ccccc21 | 8.07
66 | O=C(O)CC1(CC(=O)Nc2ccc3sccc3c2)CCCCC1 | 9.18
67 | CC(C)=CC(=O)Nc1nnc(C(C)C)s1 | 11.2
68 | Cc1nnc(NC(=O)CSc2nnc(CC(=O)Nc3ccccc3C)n2C)s1 | 17.4
69 | COc1ccc(CCn2c(C)cc(C(=O)COC(=O)c3ccc(NC(=O)CC#N)cc3)c2C)cc1 | 5.24

Row | Structure (SMILES) | hERG current change (%, negative = inhibition) at 1uM [%]
70 | Cc1cccc2cc3c(NC(=O)C(C)C)nn(C)c3nc12 | 17
71 | CC(C)c1nc(SCC(=O)N2CCCC2)c2ccccc2n1 | 3.55
72 | FC(F)(F)c1cc(-c2cccs2)nc(-n2cc(Cl)cn2)n1 | 13.1
73 | O=C(CCSc1ccc(Cl)cc1)c1ccco1 | 7.89
74 | CCOc1ccc(NC(=O)CCCCn2c(=O)[nH]c3ccsc3c2=O)cc1 | -3.89
75 | O=C(/C=C/c1ccccc1Cl)Nc1cccc(O)c1 | 12.3
76 | Cc1ccc2nc(SCC(=O)c3ccc(Cl)cc3)nc(=O)n2c1 | 1.39
77 | Br.c1ccc2c(CCNCc3ccc4c(c3)OCO4)c[nH]c2c1 | 2.83
78 | Cc1cc(C)c(C)c(S(=O)(=O)N2CCN(C(=O)c3ccco3)CC2)c1C | 11.7
79 | O=C(NCCc1ccccc1)c1nc2c(nnn2Cc2ccccc2Cl)c(=O)[nH]1 | -5.71
80 | N/C(Cc1cccc2ccccc12)=N\O | 6.39
81 | COc1cc(Cc2cnc(N)nc2N)cc(OC)c1OC | -4.76
82 | O=C(O)c1cccc(S(=O)(=O)Nc2ccc([N+](=O)[O-])cc2O)c1 | 12.1
83 | Cc1ccccc1C(=O)N1CCC(C(=O)NC(C)c2ccc(-n3ccnc3)cc2)CC1 (centres unmarked) | 9.92
84 | O=C(Nc1cccc2nsnc12)c1ccc2c(c1)OCCO2 | 13.7
85 | CC(C)(C)c1ccc(C(CC(=O)O)NC(=O)c2ccccc2F)cc1 (centres unmarked) | 9.61
86 | COc1ccc(C2=NN(C(=O)CSc3nc4ccccc4s3)C(c3ccc(OC)cc3)C2)cc1 (centres unmarked) | 7.24
87 | Cc1[nH][nH]c(=O)c1N=Nc1ccc(Cl)cc1 | 3.28
88 | Cc1ccc(S(=O)(=O)NC2c3cccc4cccc(c34)C2Sc2nc(C)cc(C)n2)cc1 (centres unmarked) | -3.52
89 | CC(=O)OC1CSC2c3ccccc3C(=O)N2Cc2sccc21 (centres unmarked) | 15.8
90 | Cc1nc2ccc(Br)cn2c1NC(C)(C)C | -5.74
91 | Cc1cc(Nc2ccccc2)n2nc(C)c(-c3ccccc3)c2n1 | 11.1
92 | CCN1C(=O)[C@@H]2[C@H](C1=O)[C@@H]1C[C@H]3C(=O)N(CC)C(=O)[C@H]3[C@@H]3C1=C(C(=O)N1C(=O)OC(=NCC4CC4)[C@]31C)[C@@H]2C | 10.9
